From PubChem BioAssay AID662 (National Center for Advancing Translational Sciences (NCATS), 2007)
Screen size: about 71,000 compounds; about 1,800 (2.5%) were called active. The inconclusive results got no clear call from the source; some entries with a clear call stand among them for comparison. Calls come from the whole dose curve; as a rule, active = well fitted activation curve with a large enough effect in the signal ratio, with a control signal flat (not every such curve was filed as active); inconclusive = small, poorly fitted or top-dose-only effect, or effect the other way, or a change in a side signal; inactive = flat fitted curve, though single readings scatter; the % refers to the signal ratio. A potency beside an inconclusive call is a rough fit, not a confirmed value.

Assay: Cell signaling CRE-BLA (Fsk stim); for activity change, negative = inhibition: % of control where 0% means no effect
Conditions: CHO CRE-bla reporter (cAMP response element driving beta-lactamase), forskolin EC10, beta-lactamase ratio; activity change, negative = inhibition: at 38.2 µM (top of the series) unless noted
Summary of the method: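 Forskolin analogue NKH 477 at EC10 stimulated CRE-driven beta-lactamase in CHO cells alongside compound dilution series. Beta-lactamase was measured with CCF4, excitation 405 nm, emission ratio 460/530 nm.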
Potency is the fitted concentration of half-maximal effect; tags give direction and shape of the fitted curve.

Structure (SMILES)	activity change, negative = inhibition	Potency
Cn1c(=O)c2c(ncn2CN2CCN(Cn3cnc4c3c(=O)n(C)c(=O)n4C)CC2)n(C)c1=O	inactive: 2.48% [at 7.6 µM]	–
Cc1cc(C)nc(N2CCC(C(=O)Nc3ccc(Oc4ccccc4)cc3)CC2)n1	inactive	–
COc1cc(N)c(Cl)cc1C(=O)N[C@H]1CCN(CCCOc2ccc(F)cc2)C[C@@H]1OC	–	inconclusive: 12.6 µM [falling, single point]
COc1ccc(OC)c(Nc2nc(N)nc(-c3cc4ccccc4o3)n2)c1	–	inconclusive: 15.8 µM [rising, partial curve]
CCN1CCCC1CNC(=O)Cn1cccc1C(=O)c1ccccc1C (centres undefined)	inactive	–
CC1CCN(S(=O)(=O)c2ccc3c(c2)oc(=O)n3CC(=O)NCc2ccc3c(c2)OCO3)CC1	inconclusive: 20.6% [cytotoxic]	–
COc1ccc(Oc2ncc3nc(-c4ccccc4)c(=O)n(C[C@H]4CCCO4)c3n2)cc1	inactive	–
CCc1nc2c(c(=O)[nH]1)C1(CCCC1)Cc1ccccc1-2	–	inconclusive: 7.94 µM [rising, partial curve]
O=C(/C=N/O)Nc1ccccc1	–	inconclusive: 5.01 µM [falling, single point]
O=C(CSc1nc(-c2ccccc2Cl)ns1)NCc1ccco1	inconclusive: 11.2%	–
COc1ccccc1NC(=O)C(C)NS(=O)(=O)c1ccc(F)cc1 (centres undefined)	inconclusive: -14%	–
O=C(c1ccc(CSCc2ccccc2F)o1)N1CCN(c2ccc(N3CCOCC3)nn2)CC1	–	inconclusive: 2.51 µM [rising, partial curve]
CCn1c(SCc2nc3ccccc3[nH]2)nnc1-c1cnccn1	–	inconclusive: 12.6 µM [rising, partial curve]
O=C(CNS(=O)(=O)c1cccs1)N1CCc2ccccc2C1	inactive	–
CCc1ccc(-c2nc(CN3CCC(C(=O)NCCc4ccc(OC)c(OC)c4)CC3)c(C)o2)cc1	inconclusive: -11.5%	–
CCc1nc2ccccc2n1Cc1ccc(OC)c(OC)c1	–	inconclusive: 12.6 µM [rising, partial curve]
CC(C)NC(=O)N1CC[C@@]2(CCCN(S(=O)(=O)c3ccccc3)C2)C1	inconclusive: 1.73%	–
CN1CCN([C@@H](c2ccccc2)c2ccc(Cl)cc2)CC1	inactive	–
CCCn1nc(CC(=O)O)c2ccccc2c1=O	inconclusive: 5.26%	–
FC(F)(F)c1cccc(-c2nc3nc(Cl)c(Cl)nc3[nH]2)c1	inactive: 13% [at 7.6 µM]	–
COC(=O)c1ccc(C(c2c(N)n(Cc3ccccc3)c(=O)n(C)c2=O)N2CCOCC2)cc1 (centres undefined)	–	inconclusive: 0.631 µM [rising, full curve]
COC(=O)c1ccc(COc2ncnc3c(Cl)cc(Cl)cc23)o1	–	inconclusive: 10 µM [rising, partial curve]
Cc1ccc(S(=O)(=O)/N=C(\CN2CCCCC2)N2CCOCC2)cc1	–	inconclusive: 0.02 µM [rising, single point]
COc1ccc(C(=O)NC(C)c2nc3ccccc3[nH]2)cc1OC (centres undefined)	inconclusive: 27.8%	–
Cc1cccc(C)c1NC(=O)Cn1c(=O)n(CCCC(=O)NCc2ccco2)c(=O)c2sccc21	inconclusive: -14.6%	–
COc1cc2c(cc1NC(=O)c1ccc3c(c1)OCO3)oc1ccccc12	inconclusive: -21.7%	–
O=C(CN(Cc1ccc2c(c1)OCO2)C(=O)CNS(=O)(=O)c1ccccc1)NCC1CCCO1 (centres undefined)	inconclusive: -10.1%	–

Structure (SMILES)	activity change, negative = inhibition	Potency
COc1ccc(CCNC(=O)c2c(O)c3cccc4c3n(c2=O)CC4)cc1	inactive	–
CC(C)Cn1c(=O)n(C)c(=O)c2[nH]cnc21	–	inconclusive: 15.8 µM [rising, partial curve]
Cc1ccc(S(=O)(=O)c2cc3c(=O)n4cccc(C)c4nc3n(Cc3ccco3)c2=N)cc1C	–	inconclusive: 12.6 µM [rising, partial curve]
O=C1CCCN1CCCN1C(=O)N[C@@H](Cc2ccccc2)C1=O	inconclusive: 14%	–
CC(C)(NO)/C(=N/O)c1cccs1	–	inconclusive: 15.8 µM [rising, partial curve, poor fit]
CN(C)c1ncc2ncc(=O)n(Cc3cccs3)c2n1	–	active: 7.94 µM
COc1cccc(-n2c(COc3ccc(C)cc3)nnc2SCC(=O)O)c1	inconclusive: 6.67%	–
CCOC(=O)N1CCN(C(=O)c2cccn3c(=O)c4sccc4nc23)CC1	inconclusive: 0.673%	–
CN1CCc2c(sc3c2c(=O)n(-c2ccccc2)c2nncn32)C1	inactive	–
CCN1C(=O)CSC1=NC1C2CC3CC(C2)CC1C3 (centres undefined)	–	inconclusive: 15.8 µM [rising, single point]
COC(=O)c1ccc(C)c(N(CCO)CCO)c1	inconclusive: 19%	–
O=C(NCCc1ccccc1)C(c1cccs1)N(C(=O)c1csnn1)C1CC1 (centres undefined)	inconclusive: -17%	–
Cc1cc(C(=O)OCC(=O)c2ccc3c(c2)OCCO3)c(C)o1	–	inconclusive: 0.316 µM [falling, partial curve]
O=C(NCCc1ccccc1)C1c2ccccc2C(=O)N1C1CC1 (centres undefined)	–	inconclusive: 0.0398 µM [falling, full curve, poor fit]
CCOCCCn1c(=N)c(C(=O)Nc2cc(C)on2)cc2c(=O)n3ccccc3nc21	inconclusive: 24.5%	–
CCOC(=O)CSc1nnc(CSc2nc3ccccc3s2)n1C	–	inconclusive: 5.01 µM [falling, single point]
COc1cccc(Cn2c(=O)c(-c3cccs3)nc3cnc(Nc4cccc(OC)c4)nc32)c1	–	inconclusive: 0.398 µM [rising, full curve]
COc1ccc(CCNC(=O)c2cc3c(=O)n4cccc(C)c4nc3n(Cc3ccncc3)c2=N)cc1	–	inconclusive: 3.98 µM [rising, partial curve]
O=C(c1ccc(S(=O)(=O)N2CCOCC2)cc1)N1CCc2ccccc2C1	inconclusive: 1.96%	–
CCOC(=O)N1CCN(C(=O)CCCn2nc(C)c3sc4ccccc4c3c2=O)CC1	–	inconclusive: 25.1 µM [rising, single point]
Cc1ccc(S(=O)(=O)N[C@H](C(=O)N2CCC(C(=O)N3CCC[C@H]3C(=O)O)CC2)C(C)C)cc1	inactive	–
CCCCC=O	inactive	–
Nc1nc(Nc2ccccc2)nc2c1ncn2[C@@H]1O[C@@H](CO)[C@H](O)[C@H]1O	inactive	–
Cc1ccccc1-c1nccc(NCc2cccnc2)n1	–	inconclusive: 0.398 µM [rising, single point]
CC1CC(C)CN(C(=O)CSc2nnc(-c3ccc(Cl)cc3)o2)C1 (centres undefined)	inactive	–
Cc1cccc(C)c1OCC(=O)Nc1ncn[nH]1	inactive	–
Cc1ccc(NC(=O)C2CC(=O)NC(Nc3cccc(C)c3)=N2)cc1 (centres undefined)	–	inconclusive: 15.8 µM [rising, single point]

Structure (SMILES)	activity change, negative = inhibition	Potency
COc1ccc(OC)c(Nc2ncnc3c2cnn3-c2ccccc2)c1	–	inconclusive: 10 µM [rising, single point]
CCOc1cc(Br)c(C(=O)O)cc1OCC	inconclusive: -6.94%	–
CCCOc1ccccc1-c1nc2c([nH]1)c(=O)[nH]c(=O)n2C	–	active: 12.6 µM
Cc1[nH]c(=O)[nH]c(=O)c1NS(=O)(=O)c1ccc2c(c1)CCCC2	inconclusive: -3.93%	–
c1cncc(-c2cccnc2)c1	inconclusive: 2.56%	–
CCOc1ccc(-n2c(=O)[nH]cc(C(=O)N3CCCc4ccccc43)c2=O)cc1	inconclusive: -11.9%	–
Oc1[nH]c2ccccc2c1/C=N/c1nccs1	inconclusive: -1.74%	–
COCCNC(=O)c1cc2c(=O)n3cccc(C)c3nc2n1C	–	inconclusive: 1.58 µM [rising, partial curve]
Nc1nc(N2CCN(C/C=C/c3ccccc3)CC2)nc2ccccc12	inactive	–
Cc1ccc(C)c(Nc2ncnc3nc[nH]c23)c1	–	inconclusive: 10 µM [rising, partial curve]
CCSc1nc2c(c(=O)[nH]c(=O)n2C)n1C	inconclusive: 26.9%	–
Cc1ccc(-c2nc(CS(=O)(=O)CC(=O)N3CCc4ccccc4C3)c(C)o2)cc1	inactive	–
COc1ccc2c(c1)CN([C@H](C)[C@@H]1CC[C@@H]3[C@H]4CC[C@H]5C[C@@H](O)CC[C@@]5(C)[C@H]4CC[C@]31C)CO2	inactive: -3.92% [at 7.6 µM]	–
Cc1cccc(N2C(N)=C(C#N)C(C#N)(C#N)C2c2ccccc2)c1 (centres undefined)	–	inconclusive: 10 µM [rising, partial curve]
CCOc1ccc(-c2nnc(SCC(=O)N(CC)CC)n2N)cc1	inactive	–
CNC(=O)Nc1cc(C(C)(C)C)no1	–	inconclusive: 5.01 µM [rising, single point]
CN(C)S(=O)(=O)c1nc(Cl)c2[nH]cnc2n1	inactive: 6.36% [at 7.6 µM]	–
CCn1c(SCc2nc3ccccc3[nH]2)nnc1-c1cccs1	–	inconclusive: 10 µM [rising, partial curve, poor fit]
c1ccc(-c2nc3cnccn3c2Nc2ccc3c(c2)OCCO3)cc1	inconclusive: 22%	–
CN(C(=O)c1c(O)c2ccccc2n(C)c1=O)c1ccccc1	inactive	–
O=C(Nc1ccc(Cl)cc1)N(Cc1cccs1)Cc1cccs1	inconclusive: -15.1%	–
Cc1cc(Cl)cc(C)c1OCC(=O)O	–	inconclusive: 3.98 µM [falling, single point]
Cc1ncc([N+](=O)[O-])n1C[C@H](O)CCl	inactive	–
COc1ccc(CCNC(=O)CCSc2nc(-c3ccco3)cc(C(F)(F)F)n2)cc1	inactive	–
COc1ccc(NC(=O)CN2CCC(n3c(C)nc4cc(F)ccc43)CC2)c(OC)c1	–	active: 0.398 µM
